# Reference: the supplement of paper PMC8728848
# Some of the results follow.
# Key:
# Experiment in all cases: glycan array binding signal (z-score within array); higher = stronger binding
# Conditions in all cases: glycan notation: IUPAC condensed, linker removed
# Gal(b1-4)GlcNAc = biological target: Gal(b1-4)GlcNAc
# In short: (§1)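 Arrays were curated from the Consortium for Functional Glycomics database, 3228 in total, and kept only where the protein sequence was available. Binding is expressed as a within-array Z-score. This score was averaged across arrays of the same protein sequence at different concentrations or buffers and across linkers, and negative values can be read as non-binding.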
# [1] = biological target: Gal(b1-4)GlcNAc(a1-6)Gal(b1-4)GlcNAc
# In short: as §1
# Gal(b1-4)GlcNAc(b1-2)Man = biological target: Gal(b1-4)GlcNAc(b1-2)Man
# In short: as §1
# [2] = biological target: Gal(b1-4)GlcNAc(b1-2)Man(a1-3)Man(b1-4)GlcNAc(b1-4)GlcNAc
# In short: as §1
# [3] = biological target: Gal(b1-4)GlcNAc(b1-2)Man(a1-3)[Gal(b1-4)GlcNAc(b1-2)Man(a1-6)]Man(b1-4)GlcNAc(b1-4)GlcNAc
# In short: as §1
# [4] = biological target: Gal(b1-4)GlcNAc(b1-2)Man(a1-3)[Gal(b1-4)GlcNAc(b1-2)Man(a1-6)]Man(b1-4)GlcNAc(b1-4)[Fuc(a1-6)]GlcNAc
# In short: as §1
# [5] = biological target: Gal(b1-4)GlcNAc(b1-2)Man(a1-3)[Gal(b1-4)GlcNAc(b1-2)Man(a1-6)][Gal(b1-4)GlcNAc(b1-4)]Man(b1-4)GlcNAc(b1-4)[Fuc(a1-6)]GlcNAc
# In short: as §1
# [6] = biological target: Gal(b1-4)GlcNAc(b1-2)Man(a1-3)[Gal(b1-4)GlcNAc(b1-2)Man(a1-6)][GlcNAc(b1-4)]Man(b1-4)GlcNAc(b1-4)[Fuc(a1-6)]GlcNAc
# In short: as §1
# [7] = biological target: Gal(b1-4)GlcNAc(b1-2)Man(a1-3)[GlcNAc(b1-2)Man(a1-6)]Man(b1-4)GlcNAc(b1-4)GlcNAc
# In short: as §1
# [8] = biological target: Gal(b1-4)GlcNAc(b1-2)Man(a1-3)[GlcNAc(b1-4)][Gal(b1-4)GlcNAc(b1-2)Man(a1-6)]Man(b1-4)GlcNAc(b1-4)GlcNAc
# In short: as §1
# [9] = biological target: Gal(b1-4)GlcNAc(b1-2)Man(a1-3)[Man(a1-6)]Man(b1-4)GlcNAc(b1-4)GlcNAc
# In short: as §1
# [10] = biological target: Gal(b1-4)GlcNAc(b1-2)Man(a1-6)Man(b1-4)GlcNAc(b1-4)GlcNAc
# In short: as §1
# [11] = biological target: Gal(b1-4)GlcNAc(b1-2)Man(a1-6)[GlcNAc(b1-2)Man(a1-3)]Man(b1-4)GlcNAc(b1-4)GlcNAc
# In short: as §1
# [12] = biological target: Gal(b1-4)GlcNAc(b1-2)Man(a1-6)[Man(a1-3)]Man(b1-4)GlcNAc(b1-4)GlcNAc
# In short: as §1
# [13] = biological target: Gal(b1-4)GlcNAc(b1-2)[Gal(b1-4)GlcNAc(b1-4)]Man(a1-3)[Gal(b1-4)GlcNAc(b1-2)Man(a1-6)]Man(b1-4)GlcNAc(b1-4)GlcNAc
# In short: as §1
# [14] = biological target: Gal(b1-4)GlcNAc(b1-2)[Gal(b1-4)GlcNAc(b1-4)]Man(a1-3)[Gal(b1-4)GlcNAc(b1-2)[Gal(b1-4)GlcNAc(b1-6)]Man(a1-6)]Man(b1-4)GlcNAc(b1-4)GlcNAc
# In short: as §1
# [15] = biological target: Gal(b1-4)GlcNAc(b1-2)[Gal(b1-4)GlcNAc(b1-4)]Man(a1-3)[GlcNAc(b1-4)][Gal(b1-4)GlcNAc(b1-2)Man(a1-6)]Man(b1-4)GlcNAc(b1-4)GlcNAc
# In short: as §1
# [16] = biological target: Gal(b1-4)GlcNAc(b1-2)[Gal(b1-4)GlcNAc(b1-4)]Man(a1-3)[GlcNAc(b1-4)][Gal(b1-4)GlcNAc(b1-2)[Gal(b1-4)GlcNAc(b1-6)]Man(a1-6)]Man(b1-4)GlcNAc(b1-4)GlcNAc
# In short: as §1
# [17] = biological target: Gal(b1-4)GlcNAc(b1-2)[Gal(b1-4)GlcNAc(b1-6)]Man(a1-6)[Gal(b1-4)GlcNAc(b1-2)Man(a1-3)]Man(b1-4)GlcNAc(b1-4)GlcNAc
# In short: as §1
# [18] = biological target: Gal(b1-4)GlcNAc(b1-2)[Gal(b1-4)GlcNAc(b1-6)]Man(a1-6)[Gal(b1-4)GlcNAc(b1-2)Man(a1-3)]Man(b1-4)GlcNAc(b1-4)[Fuc(a1-6)]GlcNAc
# In short: as §1
# [19] = biological target: Gal(b1-4)GlcNAc(b1-2)[Gal(b1-4)GlcNAc(b1-6)]Man(a1-6)[GlcNAc(b1-4)][Gal(b1-4)GlcNAc(b1-2)Man(a1-3)]Man(b1-4)GlcNAc(b1-4)GlcNAc
# In short: as §1
# [20] = biological target: Gal(b1-4)GlcNAc(b1-2)[Gal(b1-4)GlcNAc(b1-6)]Man(a1-6)[GlcNAc(b1-4)][Gal(b1-4)GlcNAc(b1-2)[Gal(b1-4)GlcNAc(b1-4)]Man(a1-3)]Man(b1-4)GlcNAc(b1-4)[Fuc(a1-6)]GlcNAc
# In short: as §1
# [21] = biological target: Gal(b1-4)GlcNAc(b1-3)Gal(b1-3)GalNAc
# In short: as §1
# [22] = biological target: Gal(b1-4)GlcNAc(b1-3)Gal(b1-3)GlcNAc
# In short: as §1
# [23] = biological target: Gal(b1-4)GlcNAc(b1-3)Gal(b1-4)Glc
# In short: as §1
# [24] = biological target: Gal(b1-4)GlcNAc(b1-3)Gal(b1-4)GlcNAc
# In short: as §1
# [25] = biological target: Gal(b1-4)GlcNAc(b1-3)Gal(b1-4)GlcNAc(b1-2)Man(a1-3)[Gal(b1-4)GlcNAc(b1-3)Gal(b1-4)GlcNAc(b1-2)Man(a1-6)]Man(b1-4)GlcNAc(b1-4)GlcNAc
# In short: as §1
# [26] = biological target: Gal(b1-4)GlcNAc(b1-3)Gal(b1-4)GlcNAc(b1-2)Man(a1-3)[Gal(b1-4)GlcNAc(b1-3)Gal(b1-4)GlcNAc(b1-2)Man(a1-6)]Man(b1-4)GlcNAc(b1-4)[Fuc(a1-6)]GlcNAc
# In short: as §1
# [27] = biological target: Gal(b1-4)GlcNAc(b1-3)Gal(b1-4)GlcNAc(b1-2)[Gal(b1-4)GlcNAc(b1-3)Gal(b1-4)GlcNAc(b1-6)]Man(a1-6)[Gal(b1-4)GlcNAc(b1-3)Gal(b1-4)GlcNAc(b1-2)Man(a1-3)]Man(b1-4)GlcNAc(b1-4)GlcNAc
# In short: as §1
# [28] = biological target: Gal(b1-4)GlcNAc(b1-3)Gal(b1-4)GlcNAc(b1-2)[Gal(b1-4)GlcNAc(b1-3)Gal(b1-4)GlcNAc(b1-6)]Man(a1-6)[Gal(b1-4)GlcNAc(b1-3)Gal(b1-4)GlcNAc(b1-2)Man(a1-3)]Man(b1-4)GlcNAc(b1-4)[Fuc(a1-6)]GlcNAc
# In short: as §1
# [29] = biological target: Gal(b1-4)GlcNAc(b1-3)Gal(b1-4)GlcNAc(b1-3)Gal(b1-4)GlcNAc
# In short: as §1
# [30] = biological target: Gal(b1-4)GlcNAc(b1-3)Gal(b1-4)GlcNAc(b1-3)Gal(b1-4)GlcNAc(b1-2)Man(a1-3)[Gal(b1-4)GlcNAc(b1-3)Gal(b1-4)GlcNAc(b1-3)Gal(b1-4)GlcNAc(b1-2)Man(a1-6)]Man(b1-4)GlcNAc(b1-4)GlcNAc
# In short: as §1
# [31] = biological target: Gal(b1-4)GlcNAc(b1-3)Gal(b1-4)GlcNAc(b1-3)Gal(b1-4)GlcNAc(b1-2)Man(a1-3)[Gal(b1-4)GlcNAc(b1-3)Gal(b1-4)GlcNAc(b1-3)Gal(b1-4)GlcNAc(b1-2)Man(a1-6)]Man(b1-4)GlcNAc(b1-4)[Fuc(a1-6)]GlcNAc
# In short: as §1
# [32] = biological target: Gal(b1-4)GlcNAc(b1-3)Gal(b1-4)GlcNAc(b1-3)Gal(b1-4)GlcNAc(b1-2)[Gal(b1-4)GlcNAc(b1-3)Gal(b1-4)GlcNAc(b1-3)Gal(b1-4)GlcNAc(b1-6)]Man(a1-6)[Gal(b1-4)GlcNAc(b1-3)Gal(b1-4)GlcNAc(b1-3)Gal(b1-4)GlcNAc(b1-2)Man(a1-3)]Man(b1-4)GlcNAc(b1-4)[Fuc(a1-6)]GlcNAc
# In short: as §1
# [33] = biological target: Gal(b1-4)GlcNAc(b1-3)Gal(b1-4)GlcNAc(b1-3)Gal(b1-4)GlcNAc(b1-3)Gal(b1-4)GlcNAc(b1-2)Man(a1-3)[Gal(b1-4)GlcNAc(b1-3)Gal(b1-4)GlcNAc(b1-3)Gal(b1-4)GlcNAc(b1-3)Gal(b1-4)GlcNAc(b1-2)Man(a1-6)]Man(b1-4)GlcNAc(b1-4)GlcNAc
# In short: as §1
# [34] = biological target: Gal(b1-4)GlcNAc(b1-3)Gal(b1-4)GlcNAc(b1-3)Gal(b1-4)GlcNAc(b1-3)Gal(b1-4)GlcNAc(b1-2)Man(a1-3)[Gal(b1-4)GlcNAc(b1-3)Gal(b1-4)GlcNAc(b1-3)Gal(b1-4)GlcNAc(b1-3)Gal(b1-4)GlcNAc(b1-2)Man(a1-6)]Man(b1-4)GlcNAc(b1-4)[Fuc(a1-6)]GlcNAc
# In short: as §1
# [35] = biological target: Gal(b1-4)GlcNAc(b1-3)Gal(b1-4)GlcNAc(b1-3)Gal(b1-4)GlcNAc(b1-3)Gal(b1-4)GlcNAc(b1-2)[Gal(b1-4)GlcNAc(b1-3)Gal(b1-4)GlcNAc(b1-3)Gal(b1-4)GlcNAc(b1-3)Gal(b1-4)GlcNAc(b1-6)]Man(a1-6)[Gal(b1-4)GlcNAc(b1-3)Gal(b1-4)GlcNAc(b1-3)Gal(b1-4)GlcNAc(b1-3)Gal(b1-4)GlcNAc(b1-2)Man(a1-3)]Man(b1-4)GlcNAc(b1-4)[Fuc(a1-6)]GlcNAc
# In short: as §1
# [36] = biological target: Gal(b1-4)GlcNAc(b1-3)Gal(b1-4)GlcNAc(b1-3)Gal(b1-4)GlcNAc(b1-3)Gal(b1-4)GlcNAc(b1-3)Gal(b1-4)GlcNAc(b1-2)Man(a1-3)[Gal(b1-4)GlcNAc(b1-3)Gal(b1-4)GlcNAc(b1-3)Gal(b1-4)GlcNAc(b1-3)Gal(b1-4)GlcNAc(b1-3)Gal(b1-4)GlcNAc(b1-2)Man(a1-6)]Man(b1-4)GlcNAc(b1-4)GlcNAc
# In short: as §1
binder,measurement,setting,value
Gal 8 (Homo sapiens) (protein) MLSLNNLQNIIYNPVIPYVGTIPDQLDPGTLIVICGHVPSDADRFQVDLQNGSSVKPRADVAFHFNPRFKRAGCIVCNTLINEKWGREEITYDTPFKREKSFEIVIMVLKDKFQVAVNGKHTLLYGHRIGPEKIDTLGIYGKVNIHSIGFSFSSDLQSTQASSLELTEISRENVPKSGTPQLQTVSPSWDLQGHGSETFCSVLWTRVFLEIAFCRPIGLTVASFQSLPFAARLNTPMGPGRTVVVKGEVNANAKSFNVDLLAGKSKDIALHLNPRLNIKAFVRNSFLQESWGEEERNITSFPFSPGMYFEMIIYCDVREFKVAVNGVHSLEYKHRFKELSSIDTLEINGDIHLLEVRSW,glycan array binding signal (z-score),Gal(b1-4)GlcNAc,-0.376
same,glycan array binding signal (z-score),[1],-0.36
same,glycan array binding signal (z-score),Gal(b1-4)GlcNAc(b1-2)Man,-0.268
same,glycan array binding signal (z-score),[2],-0.357
same,glycan array binding signal (z-score),[3],-0.486
same,glycan array binding signal (z-score),[4],-0.357
same,glycan array binding signal (z-score),[5],-0.353
same,glycan array binding signal (z-score),[6],-0.352
same,glycan array binding signal (z-score),[7],-0.357
same,glycan array binding signal (z-score),[8],-0.356
same,glycan array binding signal (z-score),[9],-0.357
same,glycan array binding signal (z-score),[10],-0.355
same,glycan array binding signal (z-score),[11],-0.354
same,glycan array binding signal (z-score),[12],-0.358
same,glycan array binding signal (z-score),[13],-0.344
same,glycan array binding signal (z-score),[14],-0.347
same,glycan array binding signal (z-score),[15],-0.347
same,glycan array binding signal (z-score),[16],-0.33
same,glycan array binding signal (z-score),[17],-0.343
same,glycan array binding signal (z-score),[18],-0.343
same,glycan array binding signal (z-score),[19],-0.348
same,glycan array binding signal (z-score),[20],-0.343
same,glycan array binding signal (z-score),[21],0.753
same,glycan array binding signal (z-score),[22],1.47
same,glycan array binding signal (z-score),[23],3.98
same,glycan array binding signal (z-score),[24],0.951
same,glycan array binding signal (z-score),[25],1.18
same,glycan array binding signal (z-score),[26],3.06
same,glycan array binding signal (z-score),[27],3.08
same,glycan array binding signal (z-score),[28],6.42
same,glycan array binding signal (z-score),[29],0.814
same,glycan array binding signal (z-score),[30],2.09
same,glycan array binding signal (z-score),[31],3.28
same,glycan array binding signal (z-score),[32],6.12
same,glycan array binding signal (z-score),[33],2.5
same,glycan array binding signal (z-score),[34],3.61
same,glycan array binding signal (z-score),[35],5.79
same,glycan array binding signal (z-score),[36],3.28
